According to PubChem BioAssay AID588855 (National Center for Advancing Translational Sciences (NCATS), 2011):
Among all 410,000 compounds or so, about 5,000 (1.2%) were called active. The inconclusive results got no clear call from the source; some entries with a clear call stand among them for comparison. The call rests on the fitted dose curve; in most records, active means well fitted inhibition curve with a large enough effect; inconclusive means small, poorly fitted or top-dose-only effect; inactive means no such curve, though single readings can be large or run the other way. A potency beside an inconclusive call is a rough fit, not a confirmed value.

Assay: qHTS for Inhibitors of TGF-b; further: nearly all actives have a fitted effect of over 65% in size
Details: HepG2 CAGA-GFP TGF-b/SMAD3 reporter, GFP fluorescence, 18 h, TGF-beta stimulated, 500 pg/mL final; series mostly up to 46.1 µM; activity, negative = inhibition: at the top concentration
How it was run: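 Inhibition of TGF-beta-driven CAGA-GFP reporter expression in HEPG2 cells is measured by cellular GFP fluorescence after 18 h stimulation with 500 pg/mL recombinant TGF-beta in 1% FBS medium at 37 degrees C.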
On the % scale 0 is the no-effect control and ±100 the full control effect; potency means the concentration at half of the fitted maximal effect; tags describe the fitted curve by direction and shape.

SMILES | Potency | activity, negative = inhibition
Cc1cc(C)c2c(=O)n3c(nc2c1)C(Cc1ccc(O)cc1)NC(=O)c1cccnc1-3 (stereo unspecified) | inconclusive: 17.8 µM [inhibitor, single point] | 
Cc1ccccc1S(=O)(=O)N1[C@@H](c2ccc(Br)cc2)C(C(=O)O)=CC[C@H]1c1ccc(Cl)cc1 | active: 17.8 µM | 
Cc1ccc(N(C)C(=O)C2CCN(S(=O)(=O)c3ccc4c(c3)CCCN4C(=O)C3CCC3)CC2)cc1 | inconclusive: 15.8 µM [inhibitor, single point] | 
Cc1cccc(Nc2nnc(SCC(=O)NC3CCCc4ccccc43)s2)c1 (stereo unspecified) | inconclusive: 35.5 µM [inhibitor, single point] | 
Cc1ccc(C)c2c(C)ccnc12 |  | inactive: -0.829%
Cc1ccc(S(=O)(=O)N(C)C[C@@H]2Oc3ncc(Br)cc3C(=O)N([C@H](C)CO)C[C@@H]2C)cc1 |  | inactive: -14.6%
CCCCCCOC(=O)C(C#N)c1nc2ccccc2nc1N1CCN(C)CC1 (stereo unspecified) | inconclusive: 35.5 µM [inhibitor, single point] | 
COc1cccc(N2CCN(C(=O)c3ccc(-c4ccccc4)cc3)CC2)c1 | inconclusive: 8.91 µM [inhibitor, partial curve, poor fit] | 
COc1ccc(OC)c(NC(=O)Cc2coc3ccc4ccccc4c23)c1 | inconclusive: 4.47 µM [inhibitor, partial curve] | 
COCc1ccc(CN2CCCCC2C(=O)Nc2ccc(Oc3ccccc3)nc2)o1 (stereo unspecified) |  | inactive: -1.79%
CC(C)Sc1nnc(CNC(=O)C23CC4CC(CC(C4)C2)C3)n1Cc1ccccc1 | inconclusive: 22.4 µM [inhibitor, single point] | 
CC(=O)NNC(=O)c1csc(Cc2c(Cl)sc3ccc(Cl)cc23)n1 | inconclusive: 2.24 µM [inhibitor, full curve, poor fit] | 
CCOC(=O)CSc1nc2ccc(C)cc2cc1C#N |  | inactive: 14.6%
O=C(NCCCc1ccccc1)c1cc(COc2ccc(F)cc2Cl)on1 |  | inactive: -17.4%
O=C(CSc1nc(-c2ccccc2)no1)N1CCCCC1 | inconclusive: 2.51 µM [inhibitor, single point] | 
CCOC(=O)N1CCc2c(sc3c2c(=O)n(CCc2ccccc2)c(=O)n3Cc2ccc(F)cc2)C1 |  | inactive: -10.8%
CCc1nc2ccc(C(=O)NCc3ccc4c(c3)OCO4)cn2c1N(CCC(C)C)CCN(C)C | inconclusive: 35.5 µM [inhibitor, single point] | 
O=C(O)CN(c1cccc(C(F)(F)F)c1)S(=O)(=O)c1ccccc1 | inconclusive: 35.5 µM [inhibitor, single point] | 
CC(C)[C@@H](COc1ccccc1)N1CCN(Cc2ccccc2)CCC1=O | inactive | 
Cc1c(C)c2ccc(OCC(=O)Nc3cccnc3)c(C)c2oc1=O |  | inactive: 0.998%
CN(Cc1ccccc1)c1ccc(C(CC(N)=O)NC(=O)c2ccc(Br)cc2)cc1[N+](=O)[O-] (stereo unspecified) | inconclusive: 28.2 µM [inhibitor, single point] | 
CC(C)CC(=O)N1CCC(N(CCc2ccccc2)Cc2ccccc2)CC1 | inconclusive: 35.5 µM [inhibitor, single point] | 
CCOC(=O)C1(CCc2ccccc2)CCN(Cc2cccc3nccnc23)CC1 | inconclusive: 10 µM [inhibitor, partial curve, poor fit] | 
O=c1[nH]c(=S)[nH]c2c1C(c1ccc(F)cc1)OC(C1CCCCC1)C2 (stereo unspecified) | inconclusive: 20 µM [inhibitor, single point] | 

SMILES | Potency | activity, negative = inhibition
CC(C)c1ccccc1OCC(=O)N(C)CC(=O)Nc1ccc(F)cc1 | inconclusive: 6.31 µM [inhibitor, single point] | 
CC(=O)c1ccc(N2CCN(C(C)C(=O)NC3CCCc4ccccc43)CC2)cc1 (stereo unspecified) |  | inactive: -20.2%
CN1CCCC1CN1CCCC1 (stereo unspecified) |  | inactive: -0.689%
Cc1ccc(CNC(=O)CSc2c3c(nc4cc(Cl)ccc24)CCCC3)o1 | inconclusive: 15.8 µM [inhibitor, partial curve, poor fit] | 
Cc1ccc(/C=N/Nc2ncnc3nc[nH]c23)cc1 | inconclusive: 22.4 µM [inhibitor, single point] | 
COC(=O)Cc1c[nH]c2cccc(OCC(O)CN(Cc3ccccc3)C(C)C)c12 (stereo unspecified) |  | inactive: -21.9%
COc1cc2c(cc1OC)C(COc1ccc(F)cc1)N(C(=O)Cc1ccc(F)cc1)CC2 (stereo unspecified) | inconclusive: 14.1 µM [inhibitor, single point] | 
Fc1ccc(Nc2ncnc3sc4c(c23)CCC4)cc1F |  | inactive: 5.74%
COc1ccccc1C(=O)NCCc1nc2ccccc2n1C | inconclusive: 10 µM [inhibitor, partial curve, poor fit] | 
Oc1ccccc1C(=S)N1CCN(c2cccc(Cl)c2)CC1 | inconclusive: 22.4 µM [inhibitor, single point] | 
O=C(C[N+]1(CCO)CCOCC1)c1ccc(F)c2ccccc12 |  | inactive: 14.3%
O=C(Nc1ccccc1Cl)/C(Cl)=C(\Cl)S(=O)c1ccccc1 (stereo unspecified) | active: 2.24 µM | 
OCCC1CN(Cc2ccon2)CCN1Cc1ccccc1 (stereo unspecified) | inconclusive: 0.631 µM [inhibitor, partial curve, poor fit] | 
Nc1n[nH]c(N)c1N=Nc1ccc(Cl)cc1Cl |  | inactive: -2.76%
COc1ccc(N(CC(=O)NCCc2ccccc2)S(=O)(=O)c2ccccc2)c(OC)c1 | inconclusive: 15.8 µM [inhibitor, single point] | 
O=C(NC1CCCC1)c1cc(S(=O)(=O)N2CCOCC2)c(Cl)cc1Cl |  | inactive: -27.7%
Cc1nnc(N/N=C/c2c[nH]c3ccccc23)[nH]c1=O |  | inactive: -5.41%
O=C(NCCc1c[nH]c2ccccc12)C(=O)c1c[nH]c2ccccc12 | inconclusive: 31.6 µM [inhibitor, single point] | 
CCCCCC(=O)NNC(=S)NC(=O)c1cccc([N+](=O)[O-])c1 |  | inactive: -8.23%
CSc1nnc(-c2ccccc2)n1C |  | inactive: -10.1%
NC(=S)N/N=C/c1cccc(/C=N/NC(N)=S)c1 |  | inactive: 4.08%
CCCN(Cc1ccccc1)C(=S)Nc1ccc(OCC)cc1 |  | inactive: -22.8%
CN1CCN(S(=O)(=O)c2ccc(C(=O)Nc3ccccc3)cc2)CC1 | inconclusive: 7.08 µM [inhibitor, partial curve, poor fit] | 
C=CCn1c(SCC(=O)Nc2ccc3c(c2)OCCO3)nnc1-c1ccco1 |  | inactive: 7.41%

SMILES | Potency | activity, negative = inhibition
CSc1cccc(N2CC(C(=O)Nc3cccc(S(=O)(=O)N4CCCC4)c3)CC2=O)c1 (stereo unspecified) | inconclusive: 35.5 µM [inhibitor, single point] | 
Cn1c(=O)[nH]c(=O)c2c1nc(Br)n2CC(O)COc1ccc(Cl)cc1 (stereo unspecified) | inconclusive: 12.6 µM [inhibitor, single point] | 
CC(=O)C1=C(C)N(Cc2ccccc2)C(=O)N[C@H]1CCc1ccccc1 | inconclusive: 25.1 µM [inhibitor, single point] | 
O=c1oc2ccccc2cc1-c1csc(Nc2nc3c(F)cccc3s2)n1 | inconclusive: 3.16 µM [inhibitor, full curve] | 
CC(C)Cc1nnc(NC(=O)C2CC(=O)N(c3ccc4c(c3)OCCO4)C2)s1 (stereo unspecified) | inconclusive: 5.62 µM [inhibitor, single point] | 
COc1cccc(C(C)(O)c2nc(-c3cccc(C(F)(F)F)c3)cs2)c1 (stereo unspecified) | inconclusive: 22.4 µM [inhibitor, single point] | 
O=C(COc1ccc(S(=O)(=O)N2CCOCC2)cc1Cl)NCC1CCCO1 (stereo unspecified) | inconclusive: 5.62 µM [inhibitor, single point] | 
Cc1ccc2oc(C(=O)N3CCCCCC3)c(C)c2c1 | inconclusive: 3.55 µM [inhibitor, full curve] | 
CCOC(=O)C1=CCN(S(=O)(=O)c2ccc(C)cc2)C1c1cccc(Br)c1 (stereo unspecified) | inconclusive: 12.6 µM [inhibitor, partial curve] | 
COc1ccc(Nc2ncc(C(=O)N3CCC(C(N)=O)CC3)c3ccccc23)cc1 |  | inactive: -1.38%
CCOc1ccc(N2C(=O)CC(NC3CCN(C(=O)c4ccc(F)cc4)CC3)C2=O)cc1 (stereo unspecified) |  | inactive: 0%
CCOc1cc(C)c(S(=O)(=O)Nc2ccc(F)cc2)cc1C | inconclusive: 35.5 µM [inhibitor, single point] | 
CCN1CCN(c2ccc(NS(=O)(=O)c3c(C)nc4sccn4c3=O)cc2Cl)CC1 | inconclusive: 7.08 µM [inhibitor, partial curve, poor fit] | 
CC(Oc1ccc2c(c1)oc(=O)c1ccccc12)C(=O)NC(Cc1c[nH]c2ccc(O)cc12)C(=O)O (stereo unspecified) |  | inactive: 10.2%
Cc1ccc(C)c(S(=O)(=O)N2CCCC2CNC(=O)C(=O)Nc2ccccc2)c1 (stereo unspecified) |  | inactive: -8.68%
Cn1nc(C(=O)N2CCN(S(=O)(=O)c3ccc(Cl)cc3)CC2)c2ccccc2c1=O | inconclusive: 35.5 µM [inhibitor, single point] | 
N/C(=N\S(=O)(=O)c1cc(C(F)(F)F)cc(C(F)(F)F)c1)c1ccc(Cl)cc1 | active: 10 µM | 
CCOc1ccc(-n2c(C)nc3cc(C(=O)NCCC4=CCCCC4)ccc32)cc1 | active: 17.8 µM | 
COc1ccc(CNC(=O)CCC(=O)N2CCSc3ccccc32)cc1 | inconclusive: 35.5 µM [inhibitor, single point] | 
CCCC1OC2C[C@@H]3[C@H]4CCC5=CC(=O)C=C[C@]5(C)[C@H]4C(O)C[C@]3(C)[C@]2(C(=O)CO)O1 (stereo partly specified) |  | inactive: -3.8%
O=C(COc1ccc(Cl)cc1)N1CCN(S(=O)(=O)c2ccccc2)CC1 | inconclusive: 25.1 µM [inhibitor, single point] | 
CCOc1cccc(C(=O)Nc2ccc(S(=O)(=O)Nc3cc(C)on3)cc2)c1 | inconclusive: 10 µM [inhibitor, partial curve, poor fit] | 
COc1ccc(-c2nc(Cn3c(SCc4ccc(C)cc4)nc4cccnc43)c(C)o2)cc1OC | active: 10 µM | 
